“And” between values parts separate entries of the source, which are not always exact repeats. Equal values may be shown once. Hit rate of the full screen: of about 150,000 compounds, about 540 (0.36%) showed an effect of 50% or more. The list shows a part of the results.
System: Plasmodium falciparum
Experiment: Primary screen in NF54 nanoGlo assay, in single point, at 2uM, 72h; a lower Z score goes with more inhibition
Type: functional, Erythrocyte
Conditions: timepoint 72 hour

| Structure (SMILES) | % Inhibition [%] | Z score | % Inhibition (2 µM) |
| --- | --- | --- | --- |
| CCOC1CC(NC(=O)c2ccc3sccc3c2)(C(=O)O)C1(C)C (stereo unspecified) | 2 | -0.19 |  |
| COc1cccc(NC(=O)CN2CCCn3nc(C)cc32)c1 | 9 | -1.63 |  |
| C#CCN1CCN(Cc2ccnn2C)CC1 | -5 | 0.66 |  |
| CCS(=O)(=O)c1ccc(N(C)CCN2CCCC2=O)cc1 | 9 | -0.97 |  |
| CN1CCc2c(c(NCCc3ccccc3)[nH]c3nnc(N)c2-3)C1 | -14 | 1.79 |  |
| CC1(C)OC(=O)C[C@@H]1C(=O)Nc1nnc[nH]1 |  |  | -12% and 7% |
| CN(C)C1(CNC(=O)CCc2cccc(F)c2F)CCOCC1 | 0 | -0.04 |  |
| O=C(NCC(F)(F)F)c1nn(CC2CC2)c2c1COCC2 | -12 | 1.53 |  |
| CCC(C)N1C(=O)C2C(CC(N)=O)NC3(C(=O)Nc4ccc(Br)cc43)C2C1=O (stereo unspecified) | 0 | 0.06 |  |
| Cc1cnn(CCNC(=O)N2CCC([C@H](F)c3ccccc3F)CC2)c1 | -5 | 0.79 |  |
| CC(O)CC(C)(C)CNC(=O)NC(C)c1nccs1 (stereo unspecified) | 2 | -0.3 |  |
| CC1CN(Cc2ccc(Cl)cc2Br)CC[S+]([O-])C1 (stereo unspecified) | -4 | 0.56 |  |
| Cc1cc(-c2nnc(NS(=O)(=O)c3cccnc3)o2)c(C)o1 | -10 | 1.59 |  |
| CC(C)(C)OC(=O)NC1CCC2CN(Cc3ccco3)CC21 (stereo unspecified) | -6 | 1.01 |  |
| CC[C@@H](C(N)=O)n1c(C)nnc1-c1cccc(C#N)c1 | -5 | 0.89 |  |
| O=C(NC(c1ccccc1)c1ccccc1)[C@@H](c1ccc(Cl)cc1Cl)N1CCOCC1 | -35 | 4.08 |  |
| CCOC(=O)Nc1nc2c(s1)CN(S(=O)(=O)c1ccccc1F)CC2 | -9 | 1.68 |  |
| Cc1ccc(NC[C@H]2CCCN2)c(C)c1 | -5 | 0.59 |  |
| Cc1cc(C)n(Cc2c(C(=O)NCc3ccco3)noc2C)n1 | -8 | 0.78 |  |
| CC(C)(C)OC(=O)NC1CC2CCCC(C1)C2NCCn1ccnc1 (stereo unspecified) | -5 | 0.82 |  |
| O=C(NC(c1ccccc1)c1ccccc1)c1ccccn1 | 4 | -0.79 |  |
| Cc1nccn1[C@@H](C)C(=O)NCc1cccnc1N1CCN(C)CC1 | -7 | 1.38 |  |

| Structure (SMILES) | % Inhibition [%] | Z score | % Inhibition (2 µM) |
| --- | --- | --- | --- |
| Cc1ccc(C)c(-n2nc(CC(N)=O)nc2[C@H]2CCOC2)c1 | -14 | 2.02 |  |
| COc1ccc(CC(=O)N2CCC3(CC2)Nc2ccccc2S(=O)(=O)N3)cc1 | -11 | 1.96 |  |
| CCNC(=NCc1c(C)nn(C)c1OC)NCC | 0 | 0.05 |  |
| CCO[C@H]1N(C)C(=O)C(C#N)=NN1c1ccc(C)cc1 | -10 | 1.5 |  |
| COCC1(CNC(=O)c2c(C)ncnc2C)CCC1 | 1 | -0.09 |  |
| Cc1nc(CNS(=O)(=O)c2ccc(-c3cc(C(F)(F)F)[nH]n3)o2)no1 | -12 | 1.22 |  |
| CCN(CCNC(=O)c1ncoc1-c1ccc2c(c1)OCCO2)C1CC1 | -13 | 1.65 |  |
| Cc1c(C(=O)N(C)[C@H]2CCCc3c2cnn3C)cnn1C(C)C | -2 | 0.26 |  |
| Cc1ccc(C)c(C(=O)N(C)CC(=O)NC(C)(C)C)c1 | 3 | -0.4 |  |
| Cc1ccccc1NC(=O)C(C)(C)Br | 5 | -0.68 |  |
| COc1ccc(NC(=O)CCc2[nH]c(C)c(C(=O)N(C)C)c2C)cc1 | -9 | 1.21 |  |
| Cc1cccc(NC(=O)[C@H]2CCCN(c3nnc4ccc(C(F)(F)F)cn34)C2)c1 | -1 | 0.25 |  |
| CCOc1ccc(NCCn2c(Nc3ccc(OCC)cc3)nc3c2c(=O)[nH]c(=O)n3C)cc1 | -4 | 0.56 |  |
| N#Cc1cnn(-c2ccc(NC(=O)CCCc3ccccn3)cc2)c1N | -12 | 1.04 |  |
| Cc1ccc(-n2nc(-c3ccccc3F)cc2C(=O)NC(c2ccccc2)c2ccccc2)cc1 | 0 | 0 |  |
| CCOc1nc(N(C)CCn2cnnc2)ncc1Br | -2 | 0.3 |  |
| NC(=O)c1cc(C2=CCCCC2)ccc1Cl | 4 | -0.46 |  |
| COCCn1ccc(NC(=O)C(=O)NC[C@H](O)c2ccccc2C)n1 | -3 | 0.47 |  |
| Cn1nncc1C1(O)CN(C(=O)CCCC2CC2)C1 | 2 | -0.28 |  |
| COC(=O)CN(CC#N)Cc1nc(C(C)(C)C)cs1 | -5 | 0.48 |  |
| O=C1N(Cc2cccc3ccccc23)c2ccccc2C1(c1ccc(O)cc1)c1ccc(O)cc1 | 1 | -0.13 |  |
| Cc1noc([C@@H]2CCCN2S(=O)(=O)c2ccc3c(c2)CCCC3)n1 | -1 | 0.1 |  |

| Structure (SMILES) | % Inhibition [%] | Z score | % Inhibition (2 µM) |
| --- | --- | --- | --- |
| CCc1cc(CN(C)Cc2ccc(-n3ccnc3)cc2)on1 | -3 | 0.54 |  |
| O=C(C1CCCC1)N(CCN1CCOCC1)CC(=O)N1N=C(c2ccc(F)cc2)C[C@H]1c1ccccc1F | -8 | 0.85 |  |
| Cc1cccc(CCNC(=O)N[C@H]2CCCN(c3ccnn3C)C2)n1 | 1 | -0.05 |  |
| CO[C@@H]1CCC[C@@H]2CN(C(=O)c3c[nH]c4ccccc34)C[C@@H]21 | 6 | -0.63 |  |
| CC(=O)Nc1ccc2c(c1)cc(C(=O)N1CCCC1)n2Cc1ccccc1 | -8 | 1.55 |  |
| CC(=O)N1CCN(C(=O)c2csc3ccccc23)CCC12CCOCC2 | 4 | -0.66 |  |
| CCN(CC)c1nc(C)cc(C(=O)NCc2ccc(F)cc2)n1 | -3 | 0.47 |  |
| Cc1noc(C)c1C(=O)NCC1(C2CCC2)CCC1 | 5 | -0.62 |  |
| CCN(C[C@H]1CCCO1)C(=O)CN(C)C(=O)c1cccs1 | -12 | 1.52 |  |
| Fc1ccccc1COc1ccc2c(Cc3ccc(Cl)cc3)noc2c1 | -12 | 1.55 |  |
| O=C(CC1CC2CCC1C2)N1CC(N2CCOCC2)C1 (stereo unspecified) | -7 | 0.88 |  |
| CCCCN(Cc1ccco1)Cc1cnn(CCC)c1C | -6 | 0.94 |  |
| Cn1cc(CN2CCC3(CCC(O)CC3)CC2)c(-c2cccs2)n1 | -3 | 0.52 |  |
| O=C(Nc1cc[nH]n1)c1csc(-c2ccc(Cl)s2)n1 | -12 | 1.89 |  |
| COCCn1cnnc1CNS(=O)(=O)c1cccc(C(=O)NC2CC2)c1 | -5 | 0.63 |  |
| O=C(c1ccccc1)N1C[C@H]2CNC(=O)[C@]23CCCC[C@@H]13 | -11 | 1.8 |  |
| C[C@H](NC(=O)CN1CCCCCC1)c1ccc(F)cc1 | -5 | 0.63 |  |
| O=C(Nc1ccc(Cc2nnc3ccccn23)cc1)Nc1cccnc1 | -18 | 3.31 |  |
| CCS(=O)(=O)c1cccc(CC(=O)N[C@@H](C)CC#N)c1 | -6 | 0.69 |  |
| O=C(NC1CCCC1)[C@H]1CCc2ncc(-c3ccc(F)cc3)n2C1 | -8 | 1.45 |  |
| Cc1cc(C(=O)NC[C@@]23CCCC=C2N(C)C(=O)CC3)nn1C | -13 | 1.83 |  |
| CN(C)c1ccc(C(=O)N[C@H]2CO[C@H]3[C@@H]2OC[C@H]3OCc2ccccc2)cc1 | 2 | -0.29 |  |

| Structure (SMILES) | % Inhibition [%] | Z score | % Inhibition (2 µM) |
| --- | --- | --- | --- |
| C[C@@H](Cc1ccco1)NC(=O)NCCOc1ccc2c(c1)OCO2 | -12 | 2.19 |  |
| Cc1nn(C)c(OC[C@H]2CCCCO2)c1C(=O)Nc1ccc2c(c1)C(=O)NC2 | -23 | 1.93 |  |
| CN(Cc1ccsc1)C(=O)Cn1cnc(C#N)n1 | -1 | 0.13 |  |
| CC1CCCN(C(C)CS(=O)(=O)c2ccc3ccccc3c2)C1 (stereo unspecified) | -11 | 1.8 |  |
| COCc1cc2nn(CC(=O)N(C)c3ccccc3)c(=O)n2c(-c2ccccc2)n1 | 2 | -0.33 |  |
| COC(=O)c1cc(CN2CC(c3cc(C)ccc3C)OCC2C)c[nH]1 (stereo unspecified) | -16 | 2 |  |
| CN(C)CCN1CC2(CCC1=O)CCN(C(=O)c1cccn1C1CC1)CC2 | -13 | 1.23 |  |
| COc1cccc2c1CC[C@@H]2NS(=O)(=O)c1c(N)noc1C | 8 | -1.05 |  |
| CC[C@]1(O)CCN(c2cc(OC)ncn2)C[C@@H]1O | -10 | 1.03 |  |
| CCN(Cc1ncccc1C(=O)O)C[C@H]1COc2ccccc2O1 | 4 | -0.39 |  |
| CCc1ccc([C@H](C)NC(=O)Cc2csc(COc3ccc(Cl)c(C)c3)n2)cc1 | -3 | 0.6 |  |
| O=C(Nc1ccccc1C(=O)N1CCN(c2ccccc2F)CC1)c1ccco1 | -12 | 2.3 |  |
| Cc1ccc(C(=O)N[C@@]2(CCO)CCOC2)nc1C | -1 | 0.07 |  |
| CCCn1c(C)cnc1C1CN(S(=O)(=O)C(C)C)C1 | -9 | 1.16 |  |
| COc1cc(-c2cccc(C(=O)NCCCn3ccnc3)c2)nc(OC)n1 | -3 | 0.37 |  |
| O=C(c1ccccc1N1CCCC1)N1CCC[C@@](O)(CN2CCCC2)C1 | -6 | 1.23 |  |
| C[C@@H](c1nnnn1C1CC1)S(=O)(=O)c1ccc2c(c1)CCC2 | -4 | 0.51 |  |
| O=C(COC(=O)CC1CCCC1)Nc1nnc(-c2ccccc2)o1 | 3 | -0.45 |  |
| Cc1ccc(CN2CCN(Cc3[nH]cnc3C)[C@H]3CS(=O)(=O)C[C@H]32)o1 | 0 | -0.03 |  |
| COc1ccc(C(=O)N(Cc2cccc(C)c2)[C@@H]2CCCC[C@H]2NC(=O)[C@@H]2CCCN2C(=O)COc2ccc(Cl)cc2)cc1 | -6 | 0.57 |  |

Source: ChEMBL document CHEMBL4888484, “Replenishing the malaria drug discovery pipeline: Screening and hit evaluation of the MMV Hit Generation Library 1 (HGL1) against asexual blood stage Plasmodium falciparum ,using a nano luciferase reporter read-out” (2022)
